The record followed here is publication PMC12948427 (The Journal of Clinical Investigation, 2025).

The term inhibition denotes the drop in the measured response relative to a control, in per cent.

In assay [1] the target is T1, HGS 1-390 (Homo sapiens, UniProt O14964). The assay is described as follows: biochemical. The settings on record: read-out: inhibition in FP-based HTS. As to the method: In each assay plate, the DMSO and unlabeled peptides were used as negative and positive controls, respectively. Free tracer wells (180 nM tracer only) were also set up as gain value in each assay plate.

Assay [2] addresses T1, HGS 1-390.

T1 sequence (O14964 1-390): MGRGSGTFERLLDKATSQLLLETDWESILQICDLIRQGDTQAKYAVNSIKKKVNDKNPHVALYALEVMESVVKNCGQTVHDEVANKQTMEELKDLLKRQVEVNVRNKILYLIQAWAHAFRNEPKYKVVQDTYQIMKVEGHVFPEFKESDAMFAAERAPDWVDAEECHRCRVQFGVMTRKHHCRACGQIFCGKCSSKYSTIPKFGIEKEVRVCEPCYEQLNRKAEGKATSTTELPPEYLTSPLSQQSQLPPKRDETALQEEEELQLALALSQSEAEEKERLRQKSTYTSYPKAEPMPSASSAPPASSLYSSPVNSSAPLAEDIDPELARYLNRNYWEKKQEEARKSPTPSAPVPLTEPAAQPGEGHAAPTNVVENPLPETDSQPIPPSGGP

Take `COc1ccc(N)cn1` [5-amino-2-methoxypyridine]: on HGS 1-390 [1], the inhibition at 33 µM was above 60%.

On to `COc1cc(OC)c2ccc(=O)oc2c1` [Citropten, citropten], for which the inhibition at 33 µM on HGS 1-390 [1] is above 60%.

For `CC1=NN(c2ccc(C)c(C)c2)C(=O)/C1=N\Nc1cccc(-c2cccc(C(=O)O)c2)c1O` [Eltrombopag, eltrombopag], at HGS 1-390 [1], the inhibition at 33 µM was above 60%.

Consider `CCOc1ccc2nc3cc(N)ccc3c(N)c2c1` [Ethacridine lactate, ethacridine lactate], for which, at HGS 1-390 [1], the inhibition at 33 µM is above 60%.

With `CCCC(=O)OC[C@@H](OC(=O)CCC)[C@@H](OC(=O)CCC)[C@H](Cn1c2nc(=O)[nH]c(=O)c-2nc2cc(C)c(C)cc21)OC(=O)CCC` [RTB, riboflavin tetrabutyrate], at HGS 1-390 [1], the inhibition at 33 µM is above 60%. Also, on HGS 1-390 [2], the “decrease in deuterium uptake of HGS 1-390 upon RTB binding” value is around 10% and the “increase in deuterium uptake of HGS 1-390 upon RTB binding” value is 6%.
